The supplement of paper PMC4967469
A lower IC50 marks a more sensitive line; a fit beyond the top or the lowest dose is shown as a bound at that dose. The AUC spans the tested range (256-fold, ending at the top dose) of the same fit: 1 means no effect, lower means more sensitive. For some assays here: An inferred top dose was derived from the fitted curves, not read from the paper. For some assays here: An entry number marks a drug with two screens in the source, which often give different values.

Experiments:
Assay in all cases: Viability of human cancer cell lines after 72 h of drug (GDSC screen)
AZD6482 = compound: Cc1cc([C@@H](C)Nc2ccccc2C(=O)O)c2nc(N3CCOCC3)cc(=O)n2c1 [AZD6482]
Description: (§1)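 Human cancer cell lines in 384-well plates, medium with 10% serum, drug for 72 h over a 256-fold dose range (nine 2-fold or five 4-fold steps up to the top dose). Adherent lines were fixed and stained with the nucleic acid dye Syto60, suspension lines read with resazurin; signal relative to control wells, capped at 0 and 100%. One two-parameter sigmoid per drug and line, fitted in a mixed model over all curves with the slope shared within a line.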

NVP-BEZ235 = compound: Cn1c(=O)n(-c2ccc(C(C)(C)C#N)cc2)c2c3cc(-c4cnc5ccccc5c4)ccc3ncc21 [NVP-BEZ235]
Description: as §1

BMN-673 = compound: Cn1ncnc1[C@H]1c2n[nH]c(=O)c3cc(F)cc(c23)N[C@@H]1c1ccc(F)cc1 [BMN-673]; details: top dose 10 µM; top dose inferred
Description: as §1

[1] = top dose 5.12 µM, screen: GDSC drug entry 156
[2] = top dose 5 µM, screen: GDSC drug entry 1066, top dose inferred

| Cell Line | AUC (AZD6482; [1]) | IC50 (AZD6482; [1]) | AUC (NVP-BEZ235) | IC50 (NVP-BEZ235) | other results |
| --- | --- | --- | --- | --- | --- |
| KP-N-YS (neuroblastoma, adherent) | 0.966 | > 5120 nM |  |  |  |
| RH-1 (rhabdomyosarcoma, adherent, top dose 0.25 µM) |  |  | 0.699 | 50.9 nM |  |
| NCI-H1693 (lung adenocarcinoma, adherent, top dose 0.25 µM) |  |  | 0.717 | 94.9 nM |  |
| OV-17R (ovary, adherent, top dose 0.25 µM) |  |  | 0.792 | 167 nM |  |
| MM1S (myeloma, suspension, top dose 0.25 µM) |  |  | 0.511 | 16.7 nM |  |
| MDST8 (large intestine, adherent, top dose 0.25 µM) |  |  | 0.655 | 41.9 nM |  |
| MS751 (cervix, adherent, top dose 0.25 µM) |  |  | 0.882 | 229 nM |  |
| NCI-H460 (large cell lung carcinoma, adherent, top dose 0.25 µM) |  |  | 0.744 | 72 nM |  |
| NCI-H1876 (small cell lung carcinoma, adherent, top dose 0.25 µM) |  |  | 0.556 | 22.2 nM |  |
| PEO1 (ovary, adherent, top dose 0.25 µM) |  |  | 0.797 | 124 nM |  |
| NCI-H1395 (lung adenocarcinoma, adherent, top dose 0.25 µM) |  |  | 0.83 | 234 nM |  |
| KP-3 (pancreas, adherent, top dose 0.25 µM) |  |  | 0.801 | 149 nM |  |
| Raji (Burkitt lymphoma, suspension, top dose 0.25 µM) |  |  | 0.84 | 156 nM |  |
| HCC1395 (breast, adherent, top dose 0.25 µM) |  |  | 0.803 | 154 nM |  |
| MOLM-13 (acute myeloid leukaemia, suspension, top dose 0.25 µM) |  |  | 0.658 | 41.7 nM |  |
| SNB75 (glioma, adherent, top dose 0.25 µM) |  |  | 0.665 | 55.7 nM |  |
| HuO9 (osteosarcoma, adherent, top dose 0.25 µM) |  |  | 0.592 | 28.7 nM |  |
| CS1 (bone, adherent, top dose 0.25 µM) |  |  | 0.629 | 37.2 nM |  |
| NCI-H747 (large intestine, adherent, top dose 0.25 µM) |  |  | 0.768 | 114 nM |  |
| NB-4 (acute myeloid leukaemia, suspension, top dose 0.25 µM) |  |  | 0.712 | 54.3 nM |  |
| 201T (lung adenocarcinoma, adherent, top dose 0.25 µM) |  |  | 0.73 | 85 nM |  |
| huH-1 (liver, adherent, top dose 0.25 µM) |  |  | 0.727 | 81.6 nM |  |
| NCI-H630 (large intestine, adherent, top dose 0.25 µM) |  |  | 0.932 | > 250 nM |  |
| SUIT-2 (pancreas, adherent, top dose 0.25 µM) |  |  | 0.693 | 56 nM |  |

| Cell Line | AUC (AZD6482; [1]) | IC50 (AZD6482; [1]) | AUC (NVP-BEZ235) | IC50 (NVP-BEZ235) | other results |
| --- | --- | --- | --- | --- | --- |
| NCI-H508 (large intestine, semi-adherent, top dose 0.25 µM) |  |  | 0.6 | 35.3 nM |  |
| TALL-1 (T-cell lymphoblastic leukaemia, suspension) | 0.99 | > 5120 nM |  |  |  |
| Caov-3 (ovary, adherent) | 0.985 | > 5120 nM |  |  |  |
| VMRC-RCW (kidney, adherent) | 0.834 | 3000 nM |  |  |  |
| MOLM-13 (acute myeloid leukaemia, suspension) | 0.864 | 4020 nM |  |  | AUC (AZD6482; [2]): 0.815; IC50 (AZD6482; [2]): 2530 nM; AUC (BMN-673): 0.636; IC50 (BMN-673): 1450 nM |
| NCI-H1417 (small cell lung carcinoma, suspension) | 0.954 | > 5120 nM |  |  | AUC (AZD6482; [2]): 0.833; IC50 (AZD6482; [2]): 4100 nM; AUC (BMN-673): 0.256; IC50 (BMN-673): 108 nM |
| CAL-148 (breast, suspension) | 0.848 | 3380 nM |  |  |  |
| SCC-3 (B-cell lymphoma, suspension) | 0.997 | > 5120 nM |  |  |  |
| NCI-H510A (small cell lung carcinoma, semi-adherent) | 0.988 | > 5120 nM |  |  | AUC (AZD6482; [2]): 0.988; IC50 (AZD6482; [2]): > 5000 nM |
| SAT (head and neck, adherent) | 0.916 | > 5120 nM |  |  | AUC (AZD6482; [2]): 0.919; IC50 (AZD6482; [2]): > 5000 nM; AUC (BMN-673): 0.846; IC50 (BMN-673): > 10000 nM |
| NCI-H1734 (lung adenocarcinoma, adherent) | 0.89 | > 5120 nM |  |  | AUC (AZD6482; [2]): 0.957; IC50 (AZD6482; [2]): > 5000 nM |
| NCI-H2196 (small cell lung carcinoma, adherent) | 0.971 | > 5120 nM |  |  |  |
| DAN-G (pancreas, adherent) | 0.974 | > 5120 nM |  |  | AUC (AZD6482; [2]): 0.972; IC50 (AZD6482; [2]): > 5000 nM |
| DOHH-2 (B-cell lymphoma, suspension) | 0.883 | > 5120 nM |  |  |  |
| MDA-MB-436 (breast, adherent) | 0.829 | 4360 nM |  |  | AUC (AZD6482; [2]): 0.804; IC50 (AZD6482; [2]): 3310 nM |
| MM1S (myeloma, suspension) |  |  |  |  | AUC (AZD6482; [2]): 0.865; IC50 (AZD6482; [2]): 4040 nM |
| RPMI-8226 (myeloma, suspension) | 0.991 | > 5120 nM |  |  | AUC (AZD6482; [2]): 0.946; IC50 (AZD6482; [2]): > 5000 nM; AUC (BMN-673): 0.959; IC50 (BMN-673): > 10000 nM |
| JHU-011 (head and neck, adherent) | 0.944 | > 5120 nM |  |  | AUC (AZD6482; [2]): 0.868; IC50 (AZD6482; [2]): 4430 nM |
| H-EMC-SS (chondrosarcoma, adherent) | 0.936 | > 5120 nM |  |  | AUC (AZD6482; [2]): 0.905; IC50 (AZD6482; [2]): > 5000 nM |
| VM-CUB-1 (bladder, adherent) | 0.915 | > 5120 nM |  |  | AUC (AZD6482; [2]): 0.96; IC50 (AZD6482; [2]): > 5000 nM |
| SNU-475 (liver, adherent) | 0.981 | > 5120 nM |  |  |  |
| HCC1599 (breast, suspension) | 0.954 | > 5120 nM |  |  |  |
| MY-M12 (leukaemia, suspension) | 0.883 | > 5120 nM |  |  | AUC (AZD6482; [2]): 0.847; IC50 (AZD6482; [2]): 4410 nM |
| NCI-H2228 (lung adenocarcinoma, adherent) | 0.921 | > 5120 nM |  |  |  |
